{"source": "paper PMC12147205", "about": "“Soybean Lectin Cross-Links Membranes by Binding Sulfatide in a Curvature-Dependent Manner” (Journal of Agricultural and Food Chemistry, 2025)", "molecular_target": "the molecule itself", "experiment": "native gel or EMSA; 4 uM purified lectin in 50 mM HEPES pH 7.4, 140 mM NaCl, room temperature, with or without 20 mM GalNAc for 1 h; 10% native gel", "data": [{"protein": "soybean lectin (natural protein, soybean (Glycine max), UniProt P05046 33-285, looked up, also called soybean meal lectin; agglutinin; source: purified from soybean meal (GalNAc beads, eluted with galactose; Superdex 200 gel filtration)) AETVSFSWNKFVPKQPNMILQGDAIVTSSGKLQLNKVDENGTPKPSSLGRALYSTPIHIWDKETGSVASFAASFNFTFYAPDTKRLADGLAFFLAPIDTKPQTHAGYLGLFNENESGDQVVAVEFDTFRNSWDPPNPHIGINVNSIRSIKTTSWDLANNKVAKVLITYDASTSLLVASLVYPSQRTSNILSDVVDLKTSLPEWVRIGFSAATGLDIPGESHDVLSWSFASNLPHASSNIDPLDLTSFVLHEAI", "values": [{"measurement": "stoichiometry N", "result": 4}]}]}
